Publication PMC4336329 (PLoS ONE, 2015)
Among all 310,000 compounds or so, about 14,000 (4.5%) showed an effect of 50% or more. Effects have a minus sign here. The list shows a part of the results.

What follows are compounds tested against human ether-à-go-go-related gene (hERG) potassium channel (human, UniProt Q12809) (assay: primary screen, population patch clamp on CHO cells stably expressing hERG).
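Also: peak tail current of the secondary pulse compared with the same well before compound.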

Chain of human ether-à-go-go-related gene (hERG) potassium channel (Q12809 whole entry, looked up): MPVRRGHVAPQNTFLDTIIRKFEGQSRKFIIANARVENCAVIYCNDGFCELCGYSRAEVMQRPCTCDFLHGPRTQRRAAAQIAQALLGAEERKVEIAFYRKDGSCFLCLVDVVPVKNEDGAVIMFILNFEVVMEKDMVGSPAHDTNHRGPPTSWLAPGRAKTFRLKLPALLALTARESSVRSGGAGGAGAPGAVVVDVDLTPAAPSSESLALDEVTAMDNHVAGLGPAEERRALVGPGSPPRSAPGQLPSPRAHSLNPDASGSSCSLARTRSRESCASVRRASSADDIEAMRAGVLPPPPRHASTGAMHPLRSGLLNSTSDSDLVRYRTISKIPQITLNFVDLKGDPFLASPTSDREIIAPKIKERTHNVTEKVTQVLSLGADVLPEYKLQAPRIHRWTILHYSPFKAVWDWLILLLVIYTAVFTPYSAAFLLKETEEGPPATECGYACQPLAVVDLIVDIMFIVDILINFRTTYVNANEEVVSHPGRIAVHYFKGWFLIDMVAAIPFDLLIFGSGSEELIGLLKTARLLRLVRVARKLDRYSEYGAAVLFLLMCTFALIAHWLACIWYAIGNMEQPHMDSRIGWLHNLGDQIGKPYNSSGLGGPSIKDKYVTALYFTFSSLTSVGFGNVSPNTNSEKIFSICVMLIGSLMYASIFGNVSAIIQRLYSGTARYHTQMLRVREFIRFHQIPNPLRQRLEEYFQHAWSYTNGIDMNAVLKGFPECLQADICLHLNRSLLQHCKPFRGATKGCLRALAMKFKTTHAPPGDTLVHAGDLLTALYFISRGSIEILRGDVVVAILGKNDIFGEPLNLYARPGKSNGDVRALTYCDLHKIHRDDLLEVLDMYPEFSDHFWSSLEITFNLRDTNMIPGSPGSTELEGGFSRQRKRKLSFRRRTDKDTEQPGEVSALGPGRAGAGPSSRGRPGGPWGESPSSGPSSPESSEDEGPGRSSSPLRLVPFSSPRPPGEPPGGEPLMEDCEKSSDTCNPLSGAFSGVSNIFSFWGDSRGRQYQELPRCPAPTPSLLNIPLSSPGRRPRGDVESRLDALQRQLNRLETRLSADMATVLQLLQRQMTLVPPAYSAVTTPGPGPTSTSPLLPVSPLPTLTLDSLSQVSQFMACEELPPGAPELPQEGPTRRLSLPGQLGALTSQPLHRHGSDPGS

| SMILES | hERG current change (%, negative = inhibition) at 10uM [%] |
| --- | --- |
| Cc1ccccc1NS(=O)(=O)c1ccc(C(=O)NCC(C)(C)N2CCOCC2)cc1 | -1.84 |
| C=C1CCC(N(O)c2cc(C)on2)C(=C)CCC2C1CC2(C)C (stereo not shown) | 8.82 |
| COc1ccc(CCNC(=O)Cn2nnc(-c3ccc(OC)c(OC)c3)n2)cc1OC | 3.58 |
| COc1cc(CN2CCNC(=O)C2CC(=O)N(C)Cc2cccnc2)cc(OC)c1 (stereo not shown) | 12.7 |
| COc1ccc(N2CCN(c3nc(C)c(C)c(=O)[nH]3)CC2)cc1 | 9.18 |
| OC(COc1ccc(CN2CCCCO2)cc1)CN1CCCCC1 (stereo not shown) | 10.8 |
| O=C(NCc1ccco1)Nc1ccc([N+](=O)[O-])cc1 | -9.2 |
| Cc1nc(C)c(CC(=O)N/N=C/c2ccc(O)cc2)c(=O)[nH]1 | 14.6 |
| CCOC(=O)CSc1nc(N(C)C)nc(N(C)C#N)n1 | -10 |
| COc1ccc2oc(C)c(NC(C)=O)c2c1 | 0.461 |
| CCN=C1SC(C(=O)Nc2cccc(C)c2)CC(=O)N1CC (stereo not shown) | -15.1 |
| CCOP(=O)(OCC)c1cc(CC)ccc1O | 5.51 |
| Cc1nnc(SCc2cc(=O)[nH]c(N3CCN(Cc4ccccc4)CC3)n2)s1 | -18.2 |
| Cc1cccc(C)c1NC(=O)C1CCCN1S(=O)(=O)c1ccc(-c2ccc(=O)[nH]n2)s1 (stereo not shown) | -68.2 |
| O=C(NC(=S)Nc1ccccc1N1CCCC1)c1cccc(F)c1 | 23 |
| CCOC(=O)/C=C/c1ccc(C(F)(F)F)cc1S(=O)(=O)NC(C)(C)C | -18.6 |
| O=C(NC1CCCCCC1)C1CCN(c2nc3ccccc3o2)CC1 | -6.43 |
| COc1ccc(CCNC(=O)CSc2nc(N)c3c(C)c(C)oc3n2)cc1OC | 1.46 |
| COc1cc(C(=O)Nc2ccc3nc(N4CCN(C)CC4)cc(C)c3c2)cc(OC)c1OC | -38.7 |
| Br.COc1ccc(OCC(=O)NN2Cc3ccccc3C2=N)cc1 | -18.1 |
| CN(NC(=O)NN)c1ncc(C(F)(F)F)cc1Cl | -3.56 |
| COc1ccc(CCNC(=O)c2cnc(C)cn2)cc1 | 17.9 |
| COc1ccccc1NC(=O)N1CCN(CCc2ccccc2)CC1 | -19 |
| COc1ccc(OC)c(Nc2nc(N)c([N+](=O)[O-])c(NC3CCCCC3)n2)c1 | 11.3 |
| COc1ccc(C2(c3ccc(O)cc3O)CC(c3ccccc3Cl)NC(=S)N2)cc1 (stereo not shown) | -15 |
